Assay results as given in PubChem BioAssay AID938 (National Center for Advancing Translational Sciences (NCATS), 2007).
Out of some 73,000 compounds screened, about 1,800 (2.5%) were called active. Not shown: some 13% with an inconclusive outcome. Calls follow the shape of the dose curve; as a rule, active = well fitted activation curve with a large enough effect; inconclusive = small, poorly fitted or top-dose-only effect; inactive = no such curve, though single readings can be large or run the other way. Only a part is listed here, and it is no random draw.

Assay: qHTS Assay for Agonists of the Thyroid Stimulating Hormone Receptor: Activators of Intracellular cAMP Concentrations in Parental HEK 293; also: nearly all actives have a fitted effect of over 55% in size; as to activation: % of control where 0% means no effect
Conditions: parental HEK293 CNG cAMP sensor, membrane potential fluorescence; series mostly up to 57.1 µM; activation: at the top concentration
Procedure, shortened: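 Parental HEK 293 cells stably expressing a cAMP-gated CNG channel were loaded with membrane potential dye containing 100 uM RO 20-1724 for 60 min. Compound added for 30 min; depolarization read as fluorescence intensity at 590 nm.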
Potency is read from the fitted curve at half-maximal effect.

Structure (SMILES)	activation	Potency
CCCc1cc(=O)[nH]c(SCC(=O)NC(=O)OCC)n1	inactive: 3.38%	
O=C(c1cc(C(F)(F)F)cc(C(F)(F)F)c1)N1CCC2(CC1)CCN(c1ccncc1)CC2		active: 3.16 µM
CCNc1cc(O)ccc1C	inactive: -32.7%	
CCCCCCCC/C=C\CCCCCCCC(=O)N(CCO)CCO	inactive: -15.6%	
CCOC(=O)CCCNC(=O)CN1C(=O)NC2(CCCCCC2)C1=O	inactive: 1.68%	
O=C(c1cc2cc(Cl)ccc2oc1=O)N1CCOCC1	inactive: -53.2%	
O=C(O)c1cc(=O)c2c(Cl)cc(Cl)cc2[nH]1	inactive: 11.3%	
O=C(Nc1nc2c(s1)CCCC2)c1cc2n(n1)C(C(F)(F)F)CC(C1CC1)N2 (stereo unspecified)	inactive: -20%	
Cn1cc(C(=O)c2ccc(Cl)cc2)cc1-c1nc2ccccc2n1C		active: 31.6 µM
CCC(Oc1ccccc1)C(=O)Nc1ccccc1OC (stereo unspecified)		active: 31.6 µM
Cc1ccc(S(=O)(=O)Nc2ccc(Br)cc2/C=N/n2cnnc2)cc1	inactive: -33.3%	
CSc1nc(N2CCOCC2)c2c(c1C#N)CCCCC2		active: 25.1 µM
O=c1c(-c2cccs2)nc2cnc(N3CCNCC3)nc2n1CCc1ccccc1	inactive: -35.7%	
COc1ccc(CCNc2oc(-c3ccco3)nc2C#N)cc1	inactive: 4.46%	
CC(=O)c1c(NC(=O)C(C)C)nc(C)nc1-c1ccccc1	inactive: 13.1% [at 11.4 µM]	
CC1(C)S[C@@H]2[C@H](NC(=O)[C@H](N)c3ccccc3)C(=O)N2[C@H]1C(=O)O	inactive: -41.7%	
O=C1C=C(N2CCN(c3ccccn3)CC2)C(=O)c2c(O)ccc(O)c21	inactive: -37.1% [at 11.4 µM]	
Oc1ccc(-c2nc(-c3ccc(F)cc3)c(-c3ccncc3)[nH]2)cc1	inactive: -39.8%	
CCN(CCNC(=O)C1CCN(Cc2nc(-c3ccc(Cl)cc3)oc2C)CC1)c1ccccc1	inactive: -50.2%	
NC(=O)CNC(=O)C1CCCc2c1[nH]c1ccc(Cl)cc21 (stereo unspecified)	inactive: -48.1%	
COc1ccc2cc([C@H](C)C(=O)O)ccc2c1	inactive: 23.2% [at 25.6 µM]	
O=C(COc1ccc2ccccc2c1CN1CCOCC1)N1CCc2ccccc21	inactive: -36%	
Cc1cc(C)c(C)c(S(=O)(=O)NCc2cccnc2)c1C	inactive: 10.4%	
CC(C)=CCC/C(C)=C/CO/N=C1/C[C@@H](O)[C@@H](O)[C@@H]2[C@@H]3C(=O)N(C(C)(C)C)C(=O)[C@H]3CC[C@@H]12	inactive: -2.67% [at 11.4 µM]	
Cc1c(-c2ccc(Cl)cc2)noc1C1CCN(CCc2ccccc2)CC1	inactive: -34.7%	
CCCn1c(=O)c2[nH]c(C3CCCC3)nc2n(CCC)c1=O	inactive: 2.49%	

Structure (SMILES)	activation	Potency
O=C(CCNNC(=O)c1ccncc1)NCc1ccccc1	inactive: -2.05% [at 25.6 µM]	
COc1ccc(OCC(O)Cn2c(=N)n(Cc3ccccc3)c3ccccc32)cc1 (stereo unspecified)	inactive: -38.5%	
CCCCC[C@H](O)/C=C/[C@H]1[C@H](O)CC(=O)[C@@H]1C/C=C\CCCC(=O)O		active: 0.01 µM
COC(=O)c1ccc(N2CCN(C)CC2)c(NC(=O)c2cc3ccccc3o2)c1	inactive: -39.5%	
CCCC(C)CO (stereo unspecified)	inactive: -9.56%	
C=CCn1c(SC/C=C/c2ccccc2)nnc1-c1sc(N)nc1C	inactive: 12.7%	
CCN(CCNC(=O)C1CCN(Cc2nc(-c3cccc(Cl)c3)oc2C)CC1)c1ccccc1	inactive: -63%	
CC1CN(C(=O)c2cc(F)c(F)cc2Cl)CC(C)O1 (stereo unspecified)	inactive: -33.9%	
O=C(Nc1cccc(C(=O)Nc2ccc(S(=O)(=O)O)c3cc(S(=O)(=O)O)cc(S(=O)(=O)O)c23)c1)Nc1cccc(C(=O)Nc2ccc(S(=O)(=O)O)c3cc(S(=O)(=O)O)cc(S(=O)(=O)O)c23)c1	inactive: 1.29%	
c1ccc(-c2ccc(N3CCCC4(CCNCC4)C3)cc2)cc1	inactive: -53.5%	
CC(C)C(c1nnnn1Cc1ccc(F)cc1)N1CCN(C2CCCCC2)CC1 (stereo unspecified)	inactive: -60.1%	
C=CCCCCCC	inactive: 2.49%	
CCc1nc(N2CCCC(C)C2)c2oc3ccccc3c2n1 (stereo unspecified)		active: 15.8 µM
N[C@@H](CS(=O)O)C(=O)O	inactive: 10.8%	
CC(C)CO/N=C1/C[C@@H](O)[C@@H](O)[C@@H]2[C@@H]3C(=O)N(Cc4ccccc4)C(=O)[C@H]3CC[C@@H]12	inactive: -3.83% [at 11.4 µM]	
Cc1ccc(S(=O)(=O)NC2CCCCC2)cc1	inactive: 50%	
CN(C)c1cc(N)c2ccccc2n1 (tested in a mixture with another compound)	inactive: -92.1%	
CCOC(=O)Cc1csc(NC(=O)CSc2nc(C)cc(=O)[nH]2)n1	inactive: -43.7%	
CCOC(=O)CN1CC23C=CC(O2)C(C(=O)NCc2ccc(C)cc2)C3C1=O (stereo unspecified)	inactive: 6.02%	
Cc1cc(NC(=O)Nc2ccc3c(ccn3C)c2)sn1	inactive: -12.1%	
BrC(Br)C(Br)Br	inactive: -10.9%	
COC(=O)c1ccccc1	inactive: 3.39%	
CC(NC(=O)c1ccco1)C(=O)Nc1nc(-c2ccccn2)cs1 (stereo unspecified)	inactive: 0.851%	
COC(=O)[C@H]1C[C@@H]1[C@H](NC(=O)OCc1ccccc1)c1ccccc1	inactive: 20.8%	
C[C@@H](C(=O)NCCc1c[nH]c2ccccc12)[C@@H]1C[C@@]1(C)[C@@H](NC(=O)OCc1ccccc1)c1ccccc1	inactive: 14.5%	
